Reference: the supplement of paper PMC11417369
± gives the standard deviation of the averaged measurements. The list shows a part of the results.

The sequences below were run on PfAP2-G AP2 domain (GST-tagged) (assay: gcPBM binding intensity (ln(normalized median fluorescence intensity)); higher = stronger DNA binding).
Method in brief: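 Binding intensity is the highest Masliner-normalised natural-log median intensity over replicate spots in either probe orientation. To obtain it, GST-tagged P. falciparum DNA-binding domains made in E. coli were incubated for 1 h on an Agilent 4 × 180k array of primer-extended double-stranded 36-bp intergenic genomic probes plus negative controls. Detection used Alexa488 anti-GST antibody with scanning at 488 nm.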

Row | Sequence | gcPBM binding intensity (ln)
1 | TCATGTTTTACAAAAACACACAAATGAATATAAACC [CACACA_site1161] | 10.2 ± 0.13
2 | TGTACATAAATCTAATTATTATATGTGTATATATAT [CACACA_negctrl_site1582] | 10.5 ± 0.28
3 | AGTACAGACATAGACACACACACACCCATAAAAAAA [CACACA_site1515] | 10.4 ± 0.25
4 | TTAAGATAGCAAATATGTACACATTTGTAAAATAAA [XGTACX_site4837] | 11.5 ± 0.94
5 | TTAAAAATAAAAAATACACACTCTAGTCCATGTAAC [CACACA_site3640] | 10.24 ± 0.057
6 | ATTTCATATAGTGTAGTGCAATTTTAAGCATCAAGG | 10.2 ± 0.26
7 | ATGTCATTATATACATGTACGCATATCTGTTTATCC [XGTACX_site3947] | 11.6 ± 1.1
8 | CCTATAATAAATAATACACACATATTGTAAATATAT [CACACA_site7496] | 10 ± 0.071
9 | TTTTTTTTTATAAGGTGTACGTAAAATGTGTAGGTC [XGTACX_site3585] | 11.6 ± 0.82
10 | AATATAATAATAAAAACACACACGTTGATTGTATTA [CACACA_site2381] | 9.74 ± 0.16
11 | TAAAAATTCAATTGCACACGCACATATTTTAATAAG [CACACA_site2014] | 10.05 ± 0.057
12 | CGTATGCAAGGAACCACACACACACCCATAAATGTA [CACACA_site749] | 10.3 ± 0.12
13 | AAAAAATAGACATATACACACATATGTATTTATAAT [CACACA_site5225] | 9.925 ± 0.021
14 | TTCTTATTTTATATTTCACACATTTTTACTATACTT [CACACA_site5817] | 10.08 ± 0.071
15 | GTATTCAAAAGTGAAACATGCAATAATATATATATA [TGCATGCA_site617] | 9.87 ± 0.12
16 | AAAAAAAAAAAAAATACACACGTGAATGTATTGTTT [CACACA_site4856] | 10.08 ± 0.085
17 | TCTTGACTAAATATATGTACATATATTTTAATAATA [XGTACX_site701] | 11.3 ± 0.86
18 | TAAGTGCTTTTCAACTGTACCTTCCATTTATTTATT [XGTACX_site8589] | 11 ± 0.61
19 | ACTACATAATATTTACGTACCTAAAAAATTCTTATA [XGTACX_site509] | 11.2 ± 0.74
20 | AAGGAGCCTATGAACACACACATGTACCTATATTAA [CACACA_site7838] | 11.1 ± 0.62
21 | ATACGTATTTATTTCACACACGTTAAAAAAATAAAA [CACACA_site6027] | 10.3 ± 0.4
22 | AGAATGAAATAATATACACACAAAGGAAAAATGTAA [CACACA_site3911] | 10.02 ± 0.064

Row | Sequence | gcPBM binding intensity (ln)
23 | ATATATATATATATATGTACATAATTAATAATTAGA [XGTACX_site5672] | 11.3 ± 0.83
24 | TCTTATCCTACTTTTATTTTTACTTTTTTTTCTTAT [CACACA_negctrl_site111] | 10.1 ± 0.014
25 | TATATATATATATGTATATATGTATATCTATATTTA [CACACA_negctrl_site131] | 9.92 ± 0.55
26 | TAAATTGAGTATATTACACACATATAAATATATTAT [CACACA_site4027] | 9.98 ± 0.085
27 | TGGATTCGTATATGTAGTACTATTTATATGTGATTT [XGTACX_site1581] | 11.2 ± 0.75
28 | TCTATTAACTGATGTGCATGTTATAACCTAGAAGTA [TGCATGCA_site359] | 10.1 ± 0.2
29 | AGTTCGAATATATAAAGTACATAATTATATATTTGC [XGTACX_site2604] | 11.1 ± 0.62
30 | TAATATCATTTAGACACACACTCTTACAATATGTAA [CACACA_site5434] | 9.985 ± 0.021
31 | TTACACATATTATATATATATAAAAAAAAAAAATAT [CACACA_negctrl_site1684] | 9.82 ± 0.29
32 | AAAAATCGATACAAGCGTACAAAATAAAATAAAAAT [XGTACX_site5546] | 11.3 ± 0.92
33 | ACCAATAATATACATACACACATAAAGGTTTATATA [CACACA_site315] | 9.91 ± 0.042
34 | TAATAAATATATAATTGTACTTAAAAGAATATAAAA [XGTACX_site2928] | 11.1 ± 0.75
35 | AATATATACCAACATAAATATATATATATATATATA [TGCATGCA_negctrl_site334] | 10.1 ± 0.55
36 | AAGTGTATATAAAAATGTACATATTTCGATTTAAAT [XGTACX_site4161] | 11.2 ± 0.76
37 | TAATAAAACATATATACACACATTATGTATACATAT [CACACA_site1703] | 10.1 ± 0.11
38 | TTAATTTGTAAATAATGTACATATAAATGGAAAGTA [XGTACX_site2743] | 11.2 ± 0.67
39 | TATTTATTAAAACACACACACACACCGACAAAATAA [CACACA_site4293] | 10.5 ± 0.47
40 | AAATATGTCAAATATACACACATAATAACTAGAATA [CACACA_site7151] | 9.865 ± 0.064
41 | TTTTTTAATATTTATACATGCATGCCGATTACTATA [TGCATGCA_site26] | 9.99 ± 0.15
42 | AATAATTATAATAAGGGTACGTATCTCACAGGAAAA [XGTACX_site4187] | 11.2 ± 0.67
43 | TTAATATTTACAAAATGTACAGATTATTTATTGTTG [XGTACX_site1270] | 10.8 ± 0.55
44 | ACAATACAAATATATACACACATACATACATACATA [CACACA_site5699] | 10.2 ± 0.24
